This data set has as its target T1, HA PGC-1β (full-length mouse PGC-1β with HA tag) (UniProt Q8VHJ7).
T1 sequence: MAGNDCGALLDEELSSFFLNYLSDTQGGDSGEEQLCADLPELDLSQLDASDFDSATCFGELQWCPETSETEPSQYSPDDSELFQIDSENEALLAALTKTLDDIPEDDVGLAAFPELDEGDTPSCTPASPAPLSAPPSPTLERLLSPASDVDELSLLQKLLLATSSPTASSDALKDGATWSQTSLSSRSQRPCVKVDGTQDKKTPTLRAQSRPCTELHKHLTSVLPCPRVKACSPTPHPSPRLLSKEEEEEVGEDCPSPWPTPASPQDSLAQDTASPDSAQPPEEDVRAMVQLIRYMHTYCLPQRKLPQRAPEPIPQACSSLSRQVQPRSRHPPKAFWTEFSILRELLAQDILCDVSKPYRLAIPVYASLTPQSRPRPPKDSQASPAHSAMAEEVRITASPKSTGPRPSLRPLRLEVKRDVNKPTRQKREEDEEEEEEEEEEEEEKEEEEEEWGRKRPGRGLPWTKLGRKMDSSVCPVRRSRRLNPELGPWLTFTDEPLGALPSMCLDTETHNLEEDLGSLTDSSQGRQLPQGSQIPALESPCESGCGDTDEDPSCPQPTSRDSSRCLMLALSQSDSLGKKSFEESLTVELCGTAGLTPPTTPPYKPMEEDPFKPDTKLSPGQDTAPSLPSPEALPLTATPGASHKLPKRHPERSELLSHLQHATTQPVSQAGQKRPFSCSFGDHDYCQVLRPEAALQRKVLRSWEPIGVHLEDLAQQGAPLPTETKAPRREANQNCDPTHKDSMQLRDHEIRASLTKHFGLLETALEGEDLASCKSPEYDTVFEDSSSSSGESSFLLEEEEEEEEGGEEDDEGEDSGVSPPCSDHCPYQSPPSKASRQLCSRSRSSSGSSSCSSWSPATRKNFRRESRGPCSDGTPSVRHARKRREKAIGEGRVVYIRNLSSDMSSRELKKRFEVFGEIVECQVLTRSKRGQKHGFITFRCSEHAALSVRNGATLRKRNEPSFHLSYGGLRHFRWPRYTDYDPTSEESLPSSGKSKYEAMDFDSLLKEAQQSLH

As for “synoviolin with FLAG tag (SYVN1/FLAG) (no sequence given)”, the “half-life of PGC-1β (cycloheximide chase, MEF Syno-/-)” value is “the wild-type synoviolin (SYVN1 WT) has extremely shortened the half-life of PGC-1β”.

The values are drawn from patent US20150330981.
